# Assay results as given in the supplement of paper PMC8728848.
# Some of the results follow.
# Columns and labels:
# [1] = molecular target: Neu5Gc(a2-8)Neu5Gc(a2-6)Gal(b1-4)GlcNAc; test: glycan array binding signal (z-score within array); higher = stronger binding; conditions: glycan notation: IUPAC condensed, linker removed
# Outline: (§1)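 Glycan array data came from 3228 arrays in the Consortium for Functional Glycomics database, and only arrays with an available protein sequence were kept. Glycan names were put into IUPAC-condensed notation, and columns mapping to the same glycan were averaged. The binding signal is a within-array Z-score, averaged across arrays of one protein sequence run at different concentrations or buffers and across linkers. A negative Z-score can be read as non-binding.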
# [2] = molecular target: Neu5Gc(b2-6)Gal(b1-4)GlcNAc; test: as above; conditions: glycan notation: IUPAC condensed, linker removed
# Outline: as §1
binder,measurement,setting,value
PLU (Photorhabdus luminiscence) (protein) HHHHHHENLYFQSSIVFASIDPRSNPLQTSSQNYVDIPGLKLDVSKYSNSPCLTALITLNIPTPYASGNNFPGGNFAIVTDQGEQLAYGGFTYSSKIPENSGRMPFTLVARYSLASNVSTIKAQWSNIRGSTVHIDSYASISAVIQCNQLV,glycan array binding signal (z-score),[1],-0.367
same,glycan array binding signal (z-score),[2],-0.227
